Paper PMC12136788
This is one part of the list.

T1: UNK ZnF1-3 (human, UniProt Q9C0B0 31-174)
T1 sequence: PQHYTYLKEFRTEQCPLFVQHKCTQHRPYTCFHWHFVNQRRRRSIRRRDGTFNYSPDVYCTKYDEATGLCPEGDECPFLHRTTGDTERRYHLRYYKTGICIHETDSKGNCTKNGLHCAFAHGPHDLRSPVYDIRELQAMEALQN

B1: chr14:89338683:89338684:+_ENSG00000165533_ENST00000346301|hu_hu|hu_hu_hu_mus_False|38_78 (ssRNA)
RNA: GGGAGUUCUACAGUCCGACGAUCGUGGUUGUUGUGGACCAGGGCCAGCCUGAAGCACUGAUGGGCCAAGUUUGUAUCUCCGAUUCCCACAGCUAUGUGUCCCAAGUUGUACCAGACAUCAGCUGCCUCUUCUUCAUUUUCAGCCAACAGAGGAUUGAGCAUCA
B2: chr2:48782664:48782665:-_ENSMUSG00000026761_ENSMUST00000141441|mus_mus|FALSE|FALSE (ssRNA)
RNA: GGGAGUUCUACAGUCCGACGAUCUCACUCUCUUUUCUAAGAGUUCCAAAAUAUCCAAUCUACAUGUAAGUCCAAUAACUGCUACUGGUGUCUGUGCAGAUUGAGAAAUGUCAAAAAGAUUAUAAAGGAGUGUUUGAUUUUUCUCAACAGAGGAUUGAGCAUCA
B3: chr3:122152592:122152593:-_ENSG00000114030_ENST00000344337|hu_mus|FALSE|FALSE (ssRNA)
RNA: GGGAGUUCUACAGUCCGACGAUCAUUUGUGAUGGCCCAAGCAGCUUCCUUCCUUGUCCGGAACUCUGCUGUUUGCAAUAUACUAAUAAGAGCUGGGAACAUGUUAGCAUCUAUCACAGUCUGGAUCUGUGCCCUAUUUCCAGCCAACAGAGGAUUGAGCAUCA
B4: chr8:59488481:59488482:+_ENSG00000137575_ENST00000447182|hu_hu|motif|central (ssRNA)
RNA: GGGAGUUCUACAGUCCGACGAUCUCCAACAUCAUUACCAGUUACAGGAGCCACCAUAUAGUUUAUACUGGAAGGUCUUGCGGCCAACCCCUGAAGUGGUGCACCAGAAACCACGGCCACAUUUGCACGUAUUUCUUCUUCAUUCAACAGAGGAUUGAGCAUCA
B5: chr1:160275524:160275525:-_ENSG00000122218_ENST00000241704|hu_hu|motif|central (ssRNA)
RNA: GGGAGUUCUACAGUCCGACGAUCACAUAAAGCAUCCAGUUUGCGGUUACAGAUCACAAUGGCGUGUUUGGCUAGUAGUGCGGCAUGUGACAUGUCUGCUGACCAGAUAACGUAUUUCACUUUAGAAAUCUUCACAGAUGCCAGCAACAGAGGAUUGAGCAUCA
B6: 94666424_94668101_775_CDS_ENSMUSG00000038902_ENSMUST00000107270|mouse|control|control (ssRNA)
RNA: GGGAGUUCUACAGUCCGACGAUCCACAGGCAUUGUGGAGCCUGGCCUCACGGGGGUCAUCUGAGAGAACACUUGUGGGACGCCAACUGUCGGCUUAACAAACUGUGUACCUGGGGCUGGGACCAAUGUAAUUGGUCUAACUGUCAACAGAGGAUUGAGCAUCA
B7: chr4:95690885:95690886:+_ENSMUSG00000028572_ENSMUST00000156910|mus_mus|mus_mus_mus_hu_False|58_98 (ssRNA)
RNA: GGGAGUUCUACAGUCCGACGAUCUUUAGAAAAUGUUAAUGUUAAAUCUAAAAUAUUUUCAAAGGCUUAUUUUAUUUUACUAAAAGACACAGGCAAGCAGACACUACAAGAAUAUAUGAAAAUGAAACUCAACAAUAUAACUGUCAACAGAGGAUUGAGCAUCA
B8: 77461496_77471655_1232_CDS_ENSG00000132842_ENST00000519295|human|control|control (ssRNA)
RNA: GGGAGUUCUACAGUCCGACGAUCCUUCAGUGUCUUGAUCAUAGUUGGAUCAGUUGACCUAACAUAGAAACUCUUCAGAUAAGGUUCAAACAUCCCCUUUCUUUGAAUUGACAUAGUUGCUAUAUUUUGUAGGACAAUAUACUGCAACAGAGGAUUGAGCAUCA
B9: chr3:148802587:148802588:-_ENSG00000071794_ENST00000310053|hu_mus|hu_hu_hu_mus_False|58_78 (ssRNA)
RNA: GGGAGUUCUACAGUCCGACGAUCUCCAACAACUUGUCCUCUCAUAGUUCCAAAUAAAACGGAAUCUUGCUCUUCAUCACUAGUUAGGAAGUCAUCUGGAGGAAUAAUGUCUUGGAAUUCAAAAUGUGGCAAGAAAGUUGAGUACAACAGAGGAUUGAGCAUCA
B10: 101230996_101231116_1247_3pUTR_ENSMUSG00000042035_ENSMUST00000043983|mouse|control|control (ssRNA)
RNA: GGGAGUUCUACAGUCCGACGAUCGACCUCCACAGGGUUCUCGCCACCCUUCUGCCGCAGCCAGGAUACCGAGAGGUGGGUGUGCUGGACGGUCUCGGUGGCCACUUCGCAGCUGAGCUCCAGGGGAUCCUGUUCCACUUUGUGCAACAGAGGAUUGAGCAUCA
B11: chr2:216981417:216981418:+_ENSG00000079246_ENST00000392132|hu_hu|hu_hu_hu_mus_True|28_38 (ssRNA)
RNA: GGGAGUUCUACAGUCCGACGAUCCUGAUACUGGUCCUUGCCAGCAAGGGCAUUAUCAGUGCCAUCUGUGCCAUAGAGGACUAACGCAAUCUCAUCUUUGUUCUCAGCAAACACCUGUCGUUGGACAAACAUAGUCAUCACUUUCAACAGAGGAUUGAGCAUCA
B12: chrX:69798090:69798091:-_ENSMUSG00000031343_ENSMUST00000055966|mus_mus|mus_mus_mus_hu_False|28_58 (ssRNA)
RNA: GGGAGUUCUACAGUCCGACGAUCAAGUCCCCGGGUUCUUGUCGUCUUGAUUCCCCUUGACCAGUGGUUCCAGGGAGAAUACUAAUCAGGAAAAGAAUCCCAAGGCUGGUCACAUAACAGUGACUUGUUUGUGUGAUUAUCAUCCAACAGAGGAUUGAGCAUCA
B13: chr7:151048522:151048523:+_ENSG00000013374_ENST00000566856|hu_mus|hu_hu_hu_mus_True|28_58 (ssRNA)
RNA: GGGAGUUCUACAGUCCGACGAUCCUGUUUCUUAUUUAUUACGAUCUUGAUGUAAUUUUCUUGAAAUCCGAAAGUUUCAGCUAUUUUACACCUCAGGUCUCUACCAGUGAUGUGCAAGCGGGUCUCCAACAAGCUUUUCUUAUCCAACAGAGGAUUGAGCAUCA
B14: chrX:34632047:34632048:-_ENSMUSG00000036572_ENSMUST00000076265|mus_mus|motif|central (ssRNA)
RNA: GGGAGUUCUACAGUCCGACGAUCGACUAUUUAAAUCUUUUCCAUCAGCCAUAAUUUGCUCUAUCCUCCGCUCUACUUGUGCGGCAAUUACAUGCUCAUUGCUCCUACACUACAGAGUCAACAGUCAACACCAACAAUGCAAAACAACAGAGGAUUGAGCAUCA
B15: chr10:20037848:20037849:+_ENSMUSG00000037608_ENSMUST00000043881|mus_hu|FALSE|FALSE (ssRNA)
RNA: GGGAGUUCUACAGUCCGACGAUCCAAGUGAAGUCUUUGAGAUACUGUAAAAAUUCUUCCUGGAGAGAAUGCUCUGAGAAAUUAAACUCUAAAUUCGAAUUCCUGACACGCCGAAUCGCGGUUCCGGGAAUUUAUCUCCGUUGCCAACAGAGGAUUGAGCAUCA
B16: 11440338_11440458_1189_CDS_ENSMUSG00000040720_ENSMUST00000059914|mouse|control|control (ssRNA)
RNA: GGGAGUUCUACAGUCCGACGAUCCAGUUCAGUUAACUUCACCGAGGCUUCUACUGCCCCUGAAUUCUCUUUAUCUGGACCUUGAUCCUUCAUUCUACUGAUUUCAAUUUCAAAAGUAGUUUUGUAUGGACAGCUGAAAUACAACAACAGAGGAUUGAGCAUCA
B17: chr2:168010559:168010560:-_ENSMUSG00000051149_ENSMUST00000088001|perfect_dup|motif|central (ssRNA)
RNA: GGGAGUUCUACAGUCCGACGAUCUUCCAAAGUCUUUUUAUCUGCAUUGAAGGUACAGUAAGGGCAGUUAAGGAGAAUCCGGUUUUCAAAGUCUUCACUAUGGACAUUCCGGAAAUGACUUUUGUAGGCAGAGAAGAAUUUUGACAACAGAGGAUUGAGCAUCA
B18: chr12:79975562:79975563:+_ENSMUSG00000021116_ENSMUST00000071230|mus_mus|FALSE|FALSE (ssRNA)
RNA: GGGAGUUCUACAGUCCGACGAUCGAAUUUGUCCUCACAUUUGAUUGCUUCCUCUGGAGAAACUCUUCUUUUUGACAAAUCUAUAUAUCCUUUUUCUUUAUCCACUCUAAUGACAACAACACAUUCAUUUCUGCCAAUUCGGAUCAACAGAGGAUUGAGCAUCA
B19: 115922937_115923057_297_CDS_ENSG00000165813_ENST00000369287|human|control|control (ssRNA)
RNA: GGGAGUUCUACAGUCCGACGAUCAAACAAGUUGCAUGAGUCUUCCUUUAAUUCAGGUGUUUUCCCAACAUUUUUAUCAGAGGAAGUAGAGGCUAUGUGGUCUGUCUCUGACAUGCUGACUGGCACCAAUUCACUUUGUAAUUCCAACAGAGGAUUGAGCAUCA
B20: 34767496_34767616_1414_3pUTR_ENSMUSG00000003778_ENSMUST00000003876|mouse|control|control (ssRNA)
RNA: GGGAGUUCUACAGUCCGACGAUCCAGCAAUAUCCAUCUUCUCCGCUAGAUCCAAGUCUUCCUUCCCAUCUAUGCUUGGAGCCUUUGAUCCACCAGGAGCCUCUGCUACCCCUGAGCGGAAACACUCUUCUUUGAUGGAAUUAACAACAGAGGAUUGAGCAUCA
B21: chr13:48835921:48835922:+_ENSG00000136156_ENST00000378565|hu_hu|motif|central (ssRNA)
RNA: GGGAGUUCUACAGUCCGACGAUCGAUAUGGGUUAUACAAAUUAGUAACACAAGUUAUUUCUUAAAUUCCAAACAUUUUCGGAAAUAUUAUUACAGCAGAUGCCUAGGAUAUUAAAACAUAAAGGUGGAAAUCAUUCUCUAAAUCAACAGAGGAUUGAGCAUCA
B22: 23648108_23650120_724_CDS_ENSG00000125944_ENST00000302271|human|control|control (ssRNA)
RNA: GGGAGUUCUACAGUCCGACGAUCAAUGCACACUCCAAGGUGUUUACCAGGGCGAAUUUCAUAGCUGUCACACAGUUUCACGGCUUCCUGUGCAGCUUCCUUUCCACAGAAGGUGAUAAAUGCAUACCCUCUAUUCUGACCGGACAACAGAGGAUUGAGCAUCA

Biological target: T1, UNK ZnF1-3
Test: nsRBNS (natural sequence RNA bind-n-seq); RBNS binding buffer (assumed for nsRBNS): 25 mM Tris pH 7.5, 150 mM KCl, 3 mM MgCl2, 0.01% Triton X-100, 500 ug/ml BSA, 20 U/ml SUPERase-In, 4 C; UNK is unkempt and MSI1 is Musashi-1; names of the RNAs are library labels; protein concentration not given here; high values mean tight binding

Binder	binding signal [enrichment R]
B1	0.94
B2	0.828
B3	0.81
B4	1.26
B5	0.72
B6	1.01
B7	2.14
B8	0.789
B9	1.46
B10	0.651
B11	0.77
B12	0.472
B13	0.563
B14	1.36
B15	1.02
B16	0.857
B17	1.29
B18	0.629
B19	0.805
B20	0.707
B21	1.11
B22	0.814
